The other results are listed elsewhere or left out.
Assays:
Assay in all cases: glycan array binding signal (z-score within array); higher = stronger binding
Conditions in all cases: glycan notation: IUPAC condensed, linker removed
Glc(a1-4)Glc = target: Glc(a1-4)Glc
Outline: (§1)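 Glycan array data came from 3228 arrays in the Consortium for Functional Glycomics database, and only arrays with an available protein sequence were kept. Glycan names were put into IUPAC-condensed notation, and columns mapping to the same glycan were averaged. The binding signal is a within-array Z-score, averaged across arrays of one protein sequence run at different concentrations or buffers and across linkers. A negative Z-score can be read as non-binding.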

Glc(a1-6)Glc(a1-6)Glc = target: Glc(a1-6)Glc(a1-6)Glc
Outline: as §1

Glc(b1-4)Glc = target: Glc(b1-4)Glc
Outline: as §1

Glc(b1-6)Glc = target: Glc(b1-6)Glc
Outline: as §1

GlcA(b1-3)Gal = target: GlcA(b1-3)Gal
Outline: as §1

GlcA(b1-3)GlcNAc = target: GlcA(b1-3)GlcNAc
Outline: as §1

GlcA(b1-6)Gal = target: GlcA(b1-6)Gal
Outline: as §1

[1] = target: GlcNAc(a1-3)Gal(b1-4)GlcNAc
Outline: as §1

[2] = target: GlcNAc(a1-4)Gal(b1-3)GlcNAc
Outline: as §1

[3] = target: GlcNAc(a1-4)Gal(b1-4)GalNAc
Outline: as §1

[4] = target: GlcNAc(a1-4)Gal(b1-4)GlcNAc
Outline: as §1

[5] = target: GlcNAc(a1-4)Gal(b1-4)GlcNAc(b1-3)Gal(b1-4)Glc
Outline: as §1

[6] = target: GlcNAc(a1-4)Gal(b1-4)GlcNAc(b1-3)Gal(b1-4)GlcNAc
Outline: as §1

[7] = target: GlcNAc(a1-4)Gal(b1-4)GlcNAc(b1-3)Gal(b1-4)GlcNAc(b1-3)Gal(b1-4)GlcNAc
Outline: as §1

[8] = target: GlcNAc(a1-4)Gal(b1-4)GlcNAc(b1-3)Gal(b1-4)[Fuc(a1-3)]GlcNAc(b1-3)Gal(b1-4)[Fuc(a1-3)]GlcNAc
Outline: as §1

[9] = target: GlcNAc(a1-6)Gal(b1-4)GlcNAc
Outline: as §1

[10] = target: GlcNAc(b1-2)Gal(b1-3)GalNAc
Outline: as §1

[11] = target: GlcNAc(b1-2)Man(a1-3)[GlcNAc(b1-2)Man(a1-6)]Man(b1-4)GlcNAc(b1-4)GlcNAc
Outline: as §1

[12] = target: GlcNAc(b1-2)Man(a1-3)[GlcNAc(b1-2)Man(a1-6)]Man(b1-4)GlcNAc(b1-4)[Fuc(a1-6)]GlcNAc
Outline: as §1

GlcNAc(b1-3)Gal = target: GlcNAc(b1-3)Gal
Outline: as §1

[13] = target: GlcNAc(b1-3)Gal(b1-3)GalNAc
Outline: as §1

GlcNAc(b1-3)Gal(b1-4)Glc = target: GlcNAc(b1-3)Gal(b1-4)Glc
Outline: as §1

[14] = target: GlcNAc(b1-3)Gal(b1-4)GlcNAc
Outline: as §1

[15] = target: GlcNAc(b1-3)Gal(b1-4)GlcNAc(b1-3)Gal(b1-4)GlcNAc
Outline: as §1

GlcNAc(b1-3)GalNAc = target: GlcNAc(b1-3)GalNAc
Outline: as §1

GlcNAc(b1-3)Man = target: GlcNAc(b1-3)Man
Outline: as §1

[16] = target: GlcNAc(b1-3)[GlcNAc(b1-4)][GlcNAc(b1-6)]GlcNAc
Outline: as §1

[17] = target: GlcNAc(b1-3)[GlcNAc(b1-6)]Gal(b1-4)GlcNAc
Outline: as §1

[18] = target: GlcNAc(b1-3)[GlcNAc(b1-6)]GalNAc
Outline: as §1

[19] = target: GlcNAc(b1-4)Gal(b1-4)GlcNAc
Outline: as §1

GlcNAc(b1-4)GlcNAc = target: GlcNAc(b1-4)GlcNAc
Outline: as §1

[20] = target: GlcNAc(b1-4)GlcNAc(b1-4)GlcNAc
Outline: as §1

[21] = target: GlcNAc(b1-4)GlcNAc(b1-4)GlcNAc(b1-4)GlcNAc(b1-4)GlcNAc
Outline: as §1

[22] = target: GlcNAc(b1-4)GlcNAc(b1-4)GlcNAc(b1-4)GlcNAc(b1-4)GlcNAc(b1-4)GlcNAc
Outline: as §1

[23] = target: GlcNAc(b1-4)[GlcNAc(b1-6)]GalNAc
Outline: as §1

[24] = target: GlcNAc(b1-6)Gal(b1-4)GlcNAc
Outline: as §1

GlcNAc(b1-6)GalNAc = target: GlcNAc(b1-6)GalNAc
Outline: as §1

GlcNAc3Prop(b1-4)GlcNAc = target: GlcNAc3Prop(b1-4)GlcNAc
Outline: as §1

[25] = target: GlcNAc6S(b1-3)Gal(b1-4)GlcNAc
Outline: as §1

Kdn(a2-3)Gal(b1-3)GalNAc = target: Kdn(a2-3)Gal(b1-3)GalNAc
Outline: as §1

Kdn(a2-3)Gal(b1-3)GlcNAc = target: Kdn(a2-3)Gal(b1-3)GlcNAc
Outline: as §1

Kdn(a2-3)Gal(b1-4)Glc = target: Kdn(a2-3)Gal(b1-4)Glc
Outline: as §1

Kdn(a2-3)Gal(b1-4)GlcNAc = target: Kdn(a2-3)Gal(b1-4)GlcNAc
Outline: as §1

[26] = target: Kdn(a2-3)Gal(b1-4)[Fuc(a1-3)]GlcNAc
Outline: as §1

Kdn(a2-6)Gal(b1-4)GlcNAc = target: Kdn(a2-6)Gal(b1-4)GlcNAc
Outline: as §1

B1: LcH (Lens culinaris), P02870 (protein)
chain: TETTSFSITKFSPDQQNLIFQGDGYTGKEGLTLTKVSKETGGRALYSTPIHIWDRDTVNVANFVTNGSQVFRESPNGYNVADGFTFFIAPVDTKPQTGGGYLGVFYNGKEYDKTSQTVAVEFDTFYNAAWDPSNKERHIGIDVNSIKSVNTKSWNLQNGVTSYTLNEVVPLKDVVPEWVRIGFSATTGAEFAAQEVHSWSFNSQLGHTSKS
Glc(a1-4)Glc
  glycan array binding signal (z-score): 0.046
Glc(a1-6)Glc(a1-6)Glc
  glycan array binding signal (z-score): -0.098
Glc(b1-4)Glc
  glycan array binding signal (z-score): -0.117
Glc(b1-6)Glc
  glycan array binding signal (z-score): -0.116
GlcA(b1-3)Gal
  glycan array binding signal (z-score): -0.111
GlcA(b1-3)GlcNAc
  glycan array binding signal (z-score): -0.113
GlcA(b1-6)Gal
  glycan array binding signal (z-score): -0.111
[1]
  glycan array binding signal (z-score): -0.119
[2]
  glycan array binding signal (z-score): -0.093
[3]
  glycan array binding signal (z-score): -0.044
[4]
  glycan array binding signal (z-score): -0.132
[5]
  glycan array binding signal (z-score): -0.067
[6]
  glycan array binding signal (z-score): -0.131
[7]
  glycan array binding signal (z-score): -0.063
[8]
  glycan array binding signal (z-score): -0.005
[9]
  glycan array binding signal (z-score): -0.102
[10]
  glycan array binding signal (z-score): -0.118
[11]
  glycan array binding signal (z-score): 1.2
[12]
  glycan array binding signal (z-score): 6.22
GlcNAc(b1-3)Gal
  glycan array binding signal (z-score): -0.106
[13]
  glycan array binding signal (z-score): -0.13
GlcNAc(b1-3)Gal(b1-4)Glc
  glycan array binding signal (z-score): -0.102
[14]
  glycan array binding signal (z-score): -0.134
[15]
  glycan array binding signal (z-score): -0.113
GlcNAc(b1-3)GalNAc
  glycan array binding signal (z-score): -0.088
GlcNAc(b1-3)Man
  glycan array binding signal (z-score): -0.124
[16]
  glycan array binding signal (z-score): -0.125
[17]
  glycan array binding signal (z-score): -0.119
[18]
  glycan array binding signal (z-score): -0.082
[19]
  glycan array binding signal (z-score): -0.097
GlcNAc(b1-4)GlcNAc
  glycan array binding signal (z-score): -0.119
[20]
  glycan array binding signal (z-score): -0.107
[21]
  glycan array binding signal (z-score): -0.127
[22]
  glycan array binding signal (z-score): -0.139
[23]
  glycan array binding signal (z-score): -0.113
[24]
  glycan array binding signal (z-score): -0.122
GlcNAc(b1-6)GalNAc
  glycan array binding signal (z-score): -0.11
GlcNAc3Prop(b1-4)GlcNAc
  glycan array binding signal (z-score): -0.127
[25]
  glycan array binding signal (z-score): -0.112
Kdn(a2-3)Gal(b1-3)GalNAc
  glycan array binding signal (z-score): -0.11
Kdn(a2-3)Gal(b1-3)GlcNAc
  glycan array binding signal (z-score): -0.12
Kdn(a2-3)Gal(b1-4)Glc
  glycan array binding signal (z-score): -0.124
Kdn(a2-3)Gal(b1-4)GlcNAc
  glycan array binding signal (z-score): -0.066
[26]
  glycan array binding signal (z-score): -0.119
Kdn(a2-6)Gal(b1-4)GlcNAc
  glycan array binding signal (z-score): -0.11

Reference: the supplement of paper PMC8728848
